Measurements: the supplement of paper PMC9446081
The whole screen tested about 39,000 compounds, of which about 220 (0.56%) showed activity. Some of the results follow.

system: Escherichia coli K-12 BW25113; assay: relative growth (OD600 normalised to plate interquartile mean) (fraction); higher = less growth inhibition, active = 0.2 or less; conditions: 50 µM; LB; incubation time: overnight (16-24 h)
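Also: static incubation at 37 °C against the wild-type strain, values averaged over two biological replicates.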

Row | Structure (SMILES) | relative growth
1 | COc1ccc(C#Cc2ccc3c(c2)[C@]2(C(=O)N3)[C@H](c3ccc(O)cc3)N3[C@H](c4ccccc4)[C@H](c4ccccc4)OC(=O)[C@H]3[C@@H]2C(=O)N2CCc3cc(OC)c(OC)cc3C2)cc1 | inactive: 1.03
2 | CCC(NC(C)C)C(O)c1ccc(O)c(O)c1.CS(=O)(=O)O (centres undefined) | inactive: 1.04
3 | COc1ccc(S(=O)(=O)Nc2cccc3c2O[C@@H](CN(C)C(=O)NC(C)C)[C@@H](C)CN([C@@H](C)CO)C3=O)cc1 | inactive: 0.988
4 | COc1cccc(NC(=O)N2C[C@H](O)COC[C@@H]3O[C@@H](CC(=O)NCc4ccccc4F)CC[C@H]32)c1 | inactive: 0.983
5 | C[C@@H]1CN([C@H](C)CO)C(=O)c2cc(C#CC3(O)CCCC3)cnc2O[C@@H]1CN(C)C(=O)Nc1ccc2c(c1)OCO2 | inactive: 0.978
6 | Cc1noc(C)c1NC(=O)Nc1ccc2c(c1)C(=O)N([C@@H](C)CO)C[C@H](C)[C@@H](CN(C)S(=O)(=O)c1ccccc1)OCCCC[C@@H](C)O2 | inactive: 0.989
7 | COCCN1C[C@H]2[C@@H](OC)CCN(S(=O)(=O)c3cn(C)cn3)[C@H]2C1 | inactive: 1.03
8 | C[C@H](CO)N1C[C@H](C)[C@@H](CN(C)CC2CCCCC2)Oc2ccc(NC(=O)CCN3CCOCC3)cc2C1=O | inactive: 0.981
9 | CN(C)C(=O)CN1CCC[C@]2(CCN(S(=O)(=O)c3cn(C)cn3)C2)C1 | inactive: 1.01
10 | C[C@H](CO)N1C[C@H](C)[C@H](CN(C)S(=O)(=O)c2cccs2)Oc2c(NS(=O)(=O)c3ccc(F)cc3)cccc2C1=O | inactive: 1.04
11 | C[C@@H]1CN([C@@H](C)CO)C(=O)c2cc(NS(=O)(=O)c3cn(C)cn3)ccc2O[C@@H]1CN(C)S(C)(=O)=O | inactive: 0.991
12 | COc1ccc(CN(C)C[C@@H]2Oc3ccc(NC(=O)Nc4ccc(C(F)(F)F)cc4)cc3C(=O)N([C@@H](C)CO)C[C@@H]2C)cc1 | inactive: 0.998
13 | Cc1ccc(S(=O)(=O)Nc2cccc3c2O[C@@H](CN(C)S(=O)(=O)c2ccc(F)cc2)[C@@H](C)CN([C@@H](C)CO)C3=O)cc1 | inactive: 1
14 | C[C@@H]1CN([C@@H](C)CO)C(=O)Cc2cc(NC(=O)c3ccncc3)ccc2O[C@@H]1CN(C)Cc1ccncc1 | inactive: 0.996
15 | COc1cccc(-c2ccc3c(c2)O[C@@H](CN(C)C(=O)C2CCC2)[C@H](C)CN([C@H](C)CO)S3(=O)=O)c1 | inactive: 0.999
16 | CC(=O)N1CCc2n[nH]c(C(=O)N3CCOCC3)c2C1 | inactive: 0.997
17 | C[C@@H]1CN([C@H](C)CO)C(=O)c2cc(NC(=O)CCCN(C)C)ccc2O[C@@H](C)CCCCO[C@@H]1CN(C)S(=O)(=O)c1cn(C)cn1 | inactive: 0.975
18 | C[C@@H]1CN([C@@H](C)CO)S(=O)(=O)c2ccc(Br)cc2O[C@@H]1CN(C)C(=O)C1CCCCC1 | inactive: 1
19 | Cc1ccc(S(=O)(=O)Nc2ccc3c(c2)C(=O)N([C@H](C)CO)C[C@H](C)[C@H](CN(C)S(=O)(=O)c2cn(C)cn2)O3)cc1 | inactive: 1.01
20 | CCCCC(CC)COC(=O)CC(C(=O)OCC(CC)CCCC)S(=O)(=O)[O-].[Na+] (centres undefined) | inactive: 1.02

Row | Structure (SMILES) | relative growth
21 | C[C@@H]1CN([C@H](C)CO)C(=O)c2cccc(NC(=O)c3ccc(-c4nccs4)cc3)c2O[C@@H]1CN(C)S(C)(=O)=O | inactive: 1.01
22 | COC[C@H]1CCCNC1 | inactive: 0.976
23 | C/C=C/c1ccc2c(c1)O[C@H](CN(C)C(=O)c1ccc3c(c1)OCO3)[C@@H](C)CN([C@H](C)CO)S2(=O)=O | inactive: 1.04
24 | Cc1noc(C)c1NC(=O)N(C)C[C@@H]1OCCCC[C@@H](C)Oc2ccc(NC(=O)C3CCCCC3)cc2C(=O)N([C@@H](C)CO)C[C@H]1C | inactive: 0.993
25 | C[C@H](CO)N1C[C@H](C)[C@H](CN(C)Cc2cccc(C(F)(F)F)c2)Oc2ncc(/C=C/c3ccccc3)cc2C1=O | inactive: 1.04
26 | C[C@H](CO)N1C[C@H](C)[C@H](CN(C)Cc2ccccc2)Oc2ccc(NC(=O)CCCCCC(=O)Nc3ccccc3N)cc2CC1=O | inactive: 0.956
27 | C[C@@H]1CN([C@H](C)CO)C(=O)Cc2cc(NC(=O)CCC(F)(F)F)ccc2O[C@H]1CN(C)Cc1ccc(Cl)c(Cl)c1 | inactive: 0.99
28 | OCCN1CCN(c2ncnc3c2ncn3[C@H]2CN(Cc3cccnc3)C[C@@H](CO)O2)CC1 | inactive: 0.99
29 | C[C@@H]1CN([C@H](C)CO)C(=O)Cc2cc(NC(=O)Cn3cnnn3)ccc2O[C@@H]1CN(C)S(=O)(=O)c1cn(C)cn1 | inactive: 0.993
30 | C[C@H]1CN([C@@H](C)CO)C(=O)c2cccc(NC(=O)c3ccc(-c4nccs4)cc3)c2O[C@@H]1CN(C)Cc1ccc2c(c1)OCO2 | inactive: 1.03
31 | Cc1ccc(S(=O)(=O)Nc2ccc3c(c2)C(=O)N([C@H](C)CO)C[C@H](C)[C@H](CN(C)Cc2ccc(C(F)(F)F)cc2)OCCCC[C@@H](C)O3)cc1 | inactive: 1.06
32 | N#C[C@@H]1C[C@@H]2C[C@@H]2N1C(=O)[C@@H](N)[C@@]12C[C@@H]3C[C@@H](C[C@@](O)(C3)C1)C2 | inactive: 0.943
33 | C[C@@H]1CCCCO[C@H](CN(C)S(=O)(=O)c2cn(C)cn2)[C@@H](C)CN([C@H](C)CO)C(=O)c2cc(N(C)C)ccc2O1 | inactive: 0.992
34 | Cc1noc(C)c1NC(=O)Nc1ccc2c(c1)C(=O)N([C@@H](C)CO)C[C@@H](C)[C@@H](CN(C)CC1CC1)OCCCC[C@@H](C)O2 | inactive: 0.983
35 | Nc1nc(=O)c2c([nH]1)CN(C(=O)[C@H]1CCOC1)CC2 | inactive: 0.99
36 | COCC(=O)Nc1ccc2c(c1)C(=O)N(C)C[C@@H](OC)[C@@H](C)CN(Cc1ccccc1OC)[C@@H](C)CO2 | inactive: 1
37 | C[C@@H]1CCCCO[C@@H](CN(C)CC2CCCCC2)[C@@H](C)CN([C@H](C)CO)C(=O)c2cc(NC(=O)Cc3ccccc3)ccc2O1 | inactive: 1.01
38 | C[C@H]1CN([C@@H](C)CO)C(=O)Cc2cc(NC(=O)Nc3ccccc3)ccc2O[C@H]1CN(C)Cc1ccc(C(F)(F)F)cc1 | inactive: 0.978
39 | O=C(C[C@@H]1CC[C@@H](NC(=O)CN2CCOCC2)[C@@H](CO)O1)NCCc1ccccc1 | inactive: 0.966
40 | CC(O)(CN)CCc1ccccc1 (centres undefined) | inactive: 1.06

Row | Structure (SMILES) | relative growth
41 | C[C@H](CO)N1C[C@H](C)[C@@H](CN(C)CC2CC2)Oc2ccc(NS(=O)(=O)c3cccs3)cc2C1=O | inactive: 0.984
42 | CN1C(=O)c2cc(NS(=O)(=O)c3ccc(F)cc3)ccc2OC[C@@H]2O[C@H](CC(=O)NCC(F)(F)F)CC[C@H]21 | inactive: 0.998
43 | C[C@@H]1CN([C@@H](C)CO)C(=O)c2cc(NS(=O)(=O)c3ccc(F)cc3)ccc2O[C@H]1CN(C)S(=O)(=O)c1ccccc1 | inactive: 0.996
44 | CN(C)C(=O)c1ccc(-c2cccc(-c3nc(C(=O)NCc4ccccc4)cc4c3[C@@H](CCO)N([S@](=O)C(C)(C)C)C4)c2)cc1 | inactive: 1
45 | CC(C)NC(=O)Nc1ccc2c(c1)C(=O)N([C@@H](C)CO)C[C@@H](C)[C@H](CN(C)C(=O)Nc1ccc(F)cc1)OCCCC[C@H](C)O2 | inactive: 0.87
46 | Cc1ccc(S(=O)(=O)N(C)C[C@H]2Oc3ccc(NC(=O)Nc4cccc5ccccc45)cc3C(=O)N([C@H](C)CO)C[C@H]2C)cc1 | inactive: 0.99
47 | CC(C)NC(=O)Nc1ccc2c(c1)CC(=O)N([C@H](C)CO)C[C@@H](C)[C@H](CN(C)S(=O)(=O)c1ccccc1)O2 | inactive: 0.95
48 | C[C@@H]1CN([C@H](C)CO)C(=O)c2cccc(NS(=O)(=O)c3ccc(Cl)cc3)c2O[C@H]1CN(C)Cc1ccc(Cl)c(Cl)c1 | inactive: 1.03
49 | COc1ccc(CN(C)C[C@H]2OCCCC[C@H](C)Oc3ccc(NC(=O)Nc4ccccc4)cc3C(=O)N([C@H](C)CO)C[C@@H]2C)cc1 | inactive: 0.995
50 | C#Cc1ccc([C@H]2C=C(C(=O)N3CCN(Cc4ccc5c(c4)OCO5)CC3)O[C@@H](OCC)[C@@H]2CCCO)cc1 | inactive: 1.02
51 | C[N+](C)(C)CCCCCCNC(=O)[C@H]1C[C@H]2C(=O)N3CCC[C@H]3C(=O)N2[C@H]1c1cccc(OCCO)c1 | inactive: 0.996
52 | CCCNC(=O)N(C)C[C@H]1Oc2cc(C#Cc3cccc(F)c3)ccc2S(=O)(=O)N([C@@H](C)CO)C[C@@H]1C | inactive: 0.997
53 | Cc1noc(C)c1S(=O)(=O)Nc1ccc2c(c1)CC(=O)N([C@@H](C)CO)C[C@@H](C)[C@@H](CN(C)Cc1ccccc1)O2 | inactive: 0.997
54 | CC(=O)O[C@@H]1[C@H](OC(C)=O)N(C(C)=O)C(=O)N1C(C)=O | inactive: 0.852
55 | CC(C)C[C@H](NC(=O)[C@@H](COC(C)(C)C)NC(=O)[C@H](Cc1ccc(O)cc1)NC(=O)[C@H](CO)NC(=O)[C@H](Cc1c[nH]c2ccccc12)NC(=O)[C@H](Cc1cnc[nH]1)NC(=O)[C@@H]1CCC(=O)N1)C(=O)N[C@@H](CCCNC(=N)N)C(=O)N1CCC[C@H]1C(=O)NNC(N)=O | inactive: 1.01
56 | COc1ccc2c3c(n(c2c1)C)[C@H](CO)N(CC1CCOCC1)C[C@]13CCN(CC1)C(=O)Cc1cccnc1 | inactive: 1.01
57 | COc1ccc(-c2cc(=O)c3c(O)c(OC)c(OC)c(OC)c3o2)cc1 | inactive: 0.943
58 | C[C@@H]1CN([C@H](C)CO)S(=O)(=O)c2ccc(C3=CCCC3)cc2O[C@H]1CN(C)S(=O)(=O)c1cn(C)cn1 | inactive: 1.01
59 | CC1(C)CC[C@]2(C(=O)O[C@@H]3O[C@H](CO)[C@@H](O)[C@H](O)[C@H]3O)CC[C@]3(C)C(=CC[C@H]4[C@@]5(C)CC[C@@H](O[C@@H]6O[C@H](C(=O)O)[C@@H](O[C@@H]7OC[C@@H](O)[C@H](O)[C@H]7O)[C@H](O[C@@H]7OC[C@](O)(CO)[C@H]7O)[C@H]6O)C(C)(C)[C@@H]5CC[C@]43C)[C@@H]2C1 | inactive: 1.02
